Results published in PubChem BioAssay AID1347120 (National Center for Advancing Translational Sciences (NCATS), 2019).
Several values for one entry are separate records, joined by “and”; a condition that tells them apart may be missing. Identical values can stand only once. The campaign covered roughly 390,000 compounds. About 930 (0.24%) were called active. Inconclusive results, whose numbers are uncertain, are shown with a selection of clear calls. Calls follow the shape of the dose curve; as a rule, active = well fitted activation curve with a large enough effect; inconclusive = small, poorly fitted or top-dose-only effect; inactive = no such curve, though single readings can be large or run the other way. A potency beside an inconclusive call is a rough fit, not a confirmed value.

assay: qHTS for Suppressors of FUS Proteinopathy: Primary screen using FUS-linked yeast assay; also: nearly all actives have a fitted effect of over 55% in size;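 as to growth rescue (activation): plate controls were DMSO vehicle for no effect and reference control for full effect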; settings: S. cerevisiae FUS-expressing, OD600, 24 h; Potency: growth rescue; growth rescue (activation): at 76.6 µM (top of the series)
How it was run: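 S. cerevisiae expressing FUS from galactose induction served as the toxicity model. Growth after 24hr at 30C, read as absorbance at 600 nm, indicates suppression of toxicity; compounds dosed at several concentrations.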
Potency is read from the fitted curve at half-maximal effect; tags tell the direction and shape of the fitted curve.

**Q.** With `O=c1oc2ccc(Br)cc2cc1-c1nc(-c2ccccc2)no1` as the molecule, how does the “growth rescue (activation)” value read?
**A.** inactive: 1.8%

**Q.** With `COC(=O)[C@]12C[C@H](CC(=O)NCCCCc3ccccc3)C(=O)N(Cc3ccco3)C1=C[C@H](C1CCCC1)O[C@@H]2C` as the molecule, how does the Potency read?
**A.** inconclusive: 17.8 µM [activator, partial curve]

**Q.** With `N#Cc1c(N)nc2c(c1-c1ccncc1)CCCCCC2` as the molecule, how does the growth rescue (activation) read?
**A.** inconclusive: 77% [activator]

**Q.** Which Potency does the source give for `O=C(O)c1cccc(NC(=O)c2cn(-c3ccccc3)nc2-c2cccc(Br)c2)c1` here?
**A.** inconclusive: 50.1 µM [activator, single point]

**Q.** For `CCCCc1cc(=O)oc2cc(C)cc(OCC(=O)N3CCC(C(=O)O)(c4ccccc4)CC3)c12`, which Potency is on record?
**A.** inconclusive: 22.4 µM [activator, partial curve, poor fit]

**Q.** For `O=S(=O)(c1cccs1)N1CCC(Cc2ccccc2)CC1`, which Potency is on record?
**A.** inconclusive: 28.2 µM [activator, single point]

**Q.** Which “growth rescue (activation)” value does the source give for `CCc1nn(CCCC(=O)NC2CCCCC2C)c(=O)c2cc3occc3n12` (stereo not given) here?
**A.** inactive: -19.2%

**Q.** With `O=C(c1cccc(NS(=O)(=O)c2ccc(Br)cc2)c1)N1CCN(c2ccccc2O)CC1` as the molecule, how does the Potency read?
**A.** inconclusive: 20 µM [activator, partial curve, poor fit]

**Q.** For `Cc1cc(=O)[nH]c(-n2nc(C)cc2C)n1`, which “growth rescue (activation)” value is on record?
**A.** inactive: 4.34%

**Q.** With `O=C(N/N=C/c1sc(=O)[nH]c1-[n+]1ccc2ccccc2c1)c1ccccc1[O-]` as the molecule, how does the Potency read?
**A.** inconclusive: 31.6 µM [activator, single point]

**Q.** With `CN1C(=O)/C(=C/c2cccc(Cl)c2)Sc2ccc(C(=O)NCc3cccnc3)cc21` as the molecule, how does the Potency read?
**A.** inconclusive: 31.6 µM [activator, single point]

**Q.** For `CCOC(=O)COc1cc(OCC(=O)OCC)c2c(=O)cc(-c3ccccc3)oc2c1`, which Potency is on record?
**A.** inconclusive: 14.1 µM [activator, partial curve]

**Q.** With `O=C(COC(=O)c1ccccc1Br)NCCC1=CCCCC1` as the molecule, how does the “growth rescue (activation)” value read?
**A.** inactive: 12.3%

**Q.** For `COc1ccc(CN(C)C(=O)c2cccc(Oc3ccccc3)c2)c(OC)c1OC`, which Potency is on record?
**A.** inconclusive: 25.1 µM [activator, partial curve, poor fit]

**Q.** Which “growth rescue (activation)” value does the source give for `O=C(NCCN1CCC(n2c(=O)[nH]c3ccccc32)CC1)c1ccc(F)cc1Cl` here?
**A.** inactive: -4.33%

**Q.** Which Potency does the source give for `CCCCCCn1c(=O)n2n(c1=O)[C@@H]1CN(S(=O)(=O)c3ccc(C)cc3)C[C@]1(O)[C@@H](OC(=O)NCc1ccc(OC)c(OC)c1)C2` here?
**A.** active: 22.4 µM

**Q.** Which growth rescue (activation) does the source give for `N#Cc1ccccc1NC(=O)CSc1nnc(-c2ccccc2)n1-c1ccccc1` here?
**A.** inconclusive: 66.3% [activator]

**Q.** With `CCN(CC)S(=O)(=O)c1ccc(S(=O)(=O)Nc2ccc3c(c2)oc2ccccc23)cc1` as the molecule, how does the Potency read?
**A.** inconclusive: 22.4 µM [activator, partial curve, poor fit]

**Q.** For `Cc1ncc(CO)c2c1Oc1nc(-c3ccccc3)nc(SCC(=O)Nc3cccc(O)c3)c1C2`, which Potency is on record?
**A.** inconclusive: 50.1 µM [activator, single point]

**Q.** With `CCN1C(=O)c2ccccc2Sc2ccc(NC(=O)c3ccc(C)c(F)c3)cc21` as the molecule, how does the “growth rescue (activation)” value read?
**A.** inactive: 13.1%

**Q.** With `COc1ccc(OC)c(/C=C/C(=O)c2ccc3c(c2)OCCO3)c1` as the molecule, how does the “growth rescue (activation)” value read?
**A.** inactive: 20.9%

**Q.** With `COC(=O)c1c(C)[nH]c(C(=O)C(C)OC(=O)C2CC(=O)N(c3ccc(C)cc3)C2)c1C` (stereo not given) as the molecule, how does the Potency read?
**A.** inconclusive: 25.1 µM [activator, partial curve]

**Q.** For `CCOC(=O)CC[C@H]1CC[C@]2(CCCN(Cc3ccccc3)C2)O1`, which “growth rescue (activation)” value is on record?
**A.** inactive: -11.5%

**Q.** With `CC(OC(=O)c1ccc(C#N)cc1)C(=O)Nc1ccc(Cl)cn1` (stereo not given) as the molecule, how does the growth rescue (activation) read?
**A.** inconclusive: -67.1% [activator]

**Q.** With `O=C(OCc1cn([C@H]2CN(C(=O)C3CCCCC3)[C@@H](c3ccc(Cl)cc3)C[C@@H]2O)nn1)c1ccccc1` as the molecule, how does the Potency read?
**A.** inconclusive: 28.2 µM [activator, partial curve]

**Q.** For `O=C(O)CC12C[C@H]3C[C@@H](C1)CC(n1ncc(N4CCN(c5ccccc5)CC4)c(Cl)c1=O)(C3)C2`, which Potency is on record?
**A.** inconclusive: 0.891 µM [activator, full curve, poor fit]

**Q.** For `Brc1cccc(-c2nc3c4ccccc4ccn3c2Cc2ccsc2)c1`, which “growth rescue (activation)” value is on record?
**A.** inactive: 13.5%

**Q.** Which Potency does the source give for `Cc1ccc(S(=O)(=O)N2CCOCC2)cc1NC(=O)COC(=O)CCOc1ccc(C(C)(C)C)cc1` here?
**A.** inconclusive: 39.8 µM [activator, single point]

**Q.** With `Cc1cccc(/C(N)=N/OC(=O)Cc2cccc3ccccc23)c1` as the molecule, how does the “growth rescue (activation)” value read?
**A.** inactive: -3.94%

**Q.** For `COc1cccc(NC(=S)NCc2ccc3c(c2)cc(C)n3C)c1`, which Potency is on record?
**A.** inconclusive: 31.6 µM [activator, single point]

**Q.** For `CCCN(C(=O)Cc1coc2cc(C)c(C)cc12)c1c(N)n(Cc2ccccc2)c(=O)[nH]c1=O`, which Potency is on record?
**A.** inconclusive: 17.8 µM [activator, single point]

**Q.** Which “growth rescue (activation)” value does the source give for `O=S1(=O)CCOCC(CO)N1Cc1cccc(Br)c1` (stereo not given) here?
**A.** inactive: -20.3%

**Q.** Which Potency does the source give for `Cc1ccccc1C(=O)N1CCN(c2ccc(NC(=S)NC(=O)c3ccco3)cc2)CC1` here?
**A.** inconclusive: 44.7 µM [activator, single point]

**Q.** Which Potency does the source give for `O=C1c2ccc(-c3ccc(F)cc3OCc3ccccc3)cc2S(=O)(=O)c2cccc(C(=O)N3CCN(c4ncc(Cl)cc4Cl)CC3)c21` here?
**A.** inconclusive: 35.5 µM [activator, single point]

**Q.** For `COc1ccc(N(CC(=O)N/N=C/c2ccc(N(C)C)cc2)S(=O)(=O)c2ccccc2)cc1`, which Potency is on record?
**A.** inconclusive: 12.6 µM [activator, partial curve]

**Q.** With `Cc1ccc(NC(=O)c2cc(-c3ccco3)nc3ccccc23)cc1S(=O)(=O)N1CCOCC1` as the molecule, how does the Potency read?
**A.** inconclusive: 17.8 µM [activator, partial curve, poor fit]

**Q.** Which Potency does the source give for `CCC(Sc1nc(C)cc(C)n1)C(=O)NC1=NN=C(c2ccc(C)cc2)CS1` (stereo not given) here?
**A.** inconclusive: 39.8 µM [activator, partial curve, poor fit]

**Q.** With `COc1ccc(CN2C(=O)C(C)Nc3ncnc(N4CCN(c5ccccc5)CC4)c32)cc1` (stereo not given) as the molecule, how does the Potency read?
**A.** inconclusive: 39.8 µM [activator, single point] and inconclusive: 28.2 µM [activator, single point]

**Q.** Which Potency does the source give for `COc1ccc(-n2c(SCC(=O)Nc3ccccc3)nc(O)cc2=O)cc1` here?
**A.** inconclusive: 50.1 µM [activator, single point]

**Q.** For `COc1ccc(NC(=O)C(c2ccc(OC)cc2)n2c(=O)c(-c3ccco3)nc3ccccc32)cc1` (stereo not given), which Potency is on record?
**A.** inconclusive: 17.8 µM [activator, partial curve]

**Q.** Which Potency does the source give for `Cc1cccc(NC(=O)c2oc3ccc(S(=O)(=O)N4CCC5(CC4)OCCO5)cc3c2C)c1C` here?
**A.** inconclusive: 35.5 µM [activator, single point]

**Q.** For `O=C(CSc1nnc(COc2ccccc2)n1-c1ccccc1)Nc1ccc(S(=O)(=O)Nc2nccs2)cc1`, which Potency is on record?
**A.** active: 20 µM

**Q.** With `Cc1ccc([C@H]2N[C@]3(CCCN(Cc4ccco4)C3=O)[C@H]3C(=O)N(Cc4ccccc4)C(=O)[C@@H]23)cc1` as the molecule, how does the Potency read?
**A.** inconclusive: 44.7 µM [activator, partial curve, poor fit]

**Q.** With `CC(=O)c1c(C)[nH]c(C(=O)NC2CCSc3ccccc32)c1C` (stereo not given) as the molecule, how does the “growth rescue (activation)” value read?
**A.** inactive: 11.2%

**Q.** Which Potency does the source give for `O=c1[nH]c(C2CCN(S(=O)(=O)c3cccc(C(F)(F)F)c3)CC2)nc2c1nnn2Cc1cccc(F)c1` here?
**A.** inconclusive: 35.5 µM [activator, partial curve, poor fit]

**Q.** With `C#CCN(C[C@@H]1[C@@H](OC(=O)NCC2CCCCC2)[C@@H](OC(=O)NCC2CCCCC2)Cn2c(=O)ccc(=O)n21)S(=O)(=O)c1ccc(C)cc1` as the molecule, how does the Potency read?
**A.** inconclusive: 35.5 µM [activator, single point]

**Q.** With `COc1ccccc1C(=O)NNC(=S)NC(=O)c1sc2ccccc2c1Cl` as the molecule, how does the Potency read?
**A.** inconclusive: 1 µM [activator, full curve, poor fit]

**Q.** With `COc1ccccc1C(=O)NCCC(=O)Nc1ccc(S(=O)(=O)N2CCCC(C)C2)cc1` (stereo not given) as the molecule, how does the Potency read?
**A.** inconclusive: 28.2 µM [activator, single point]

**Q.** Which Potency does the source give for `Cc1nc2ccc(S(=O)(=O)Nc3cc(-c4nc5cccnc5s4)ccc3C)cc2s1` here?
**A.** inconclusive: 35.5 µM [activator, single point]

**Q.** With `CCCCCc1ccc(-c2n[nH]c(=O)c3ccccc23)cc1` as the molecule, how does the “growth rescue (activation)” value read?
**A.** inactive: -5.43%

**Q.** Which “growth rescue (activation)” value does the source give for `S=C1SCN(Cc2ccco2)CN1Cc1ccco1` here?
**A.** inactive: -12.8%

**Q.** With `Cc1cccc(N2CCN(S(=O)(=O)c3c(C(=O)N4CCC(C)CC4)c(C)n(C)c3C)CC2)c1C` as the molecule, how does the Potency read?
**A.** inconclusive: 8.91 µM [activator, single point]

**Q.** For `N#Cc1c(N2CCSCC2)nsc1-c1ccccc1Cl`, which “growth rescue (activation)” value is on record?
**A.** inactive: 1.75%

**Q.** With `Cc1cccc(CNC(=O)C2CCN(S(=O)(=O)c3ccc4c(c3)CCCN4C(=O)C3CCC3)CC2)c1` as the molecule, how does the Potency read?
**A.** active: 28.2 µM

**Q.** For `CN(Cc1cccc2cnccc12)C(=O)c1cc(COc2ccc(F)cc2F)on1`, which “growth rescue (activation)” value is on record?
**A.** inactive: 22.6%

**Q.** Which Potency does the source give for `COc1ccc(NC(=O)CSC2=Nc3ccccc3C3=NC(CC(=O)NCc4ccc5c(c4)OCO5)C(=O)N23)cc1` (stereo not given) here?
**A.** inconclusive: 39.8 µM [activator, single point]

**Q.** With `COc1cccc(NC(=O)N(Cc2c[nH]c3ccccc23)C2CCCCC2)c1` as the molecule, how does the Potency read?
**A.** inconclusive: 22.4 µM [activator, partial curve, poor fit]

**Q.** Which “growth rescue (activation)” value does the source give for `C#CCOCCOCCOCCNc1nc(N2CCN(C(=O)C([C@@H](C)CC)n3cc(C(N)COC(=O)C(F)(F)F)nn3)CC2)nc(N2CCN(C(=O)[C@H](CCCCN)n3cc(C(N)CC(C)C)nn3)CC2)n1` (stereo not given in full) here?
**A.** inactive: 29.1%

**Q.** With `CCOC(=O)c1ccn(-c2nc(-c3cccc(OC)c3)cc(C(F)(F)F)n2)n1` as the molecule, how does the “growth rescue (activation)” value read?
**A.** inactive: 44.7%

**Q.** Which Potency does the source give for `COC(=O)[C@]12C[C@H](CC(=O)NCCc3ccccc3OC)C(=O)N(Cc3ccco3)C1=C[C@H](C1CCCC1)O[C@@H]2C` here?
**A.** inconclusive: 28.2 µM [activator, partial curve, poor fit]
